# PubChem BioAssay (Tox21)
# Inconclusive means that the source gave no clear call. Such entries were picked first, then a sample of the others. Where the call is inconclusive, the potency comes from a doubtful curve fit. Calls of active or inactive are those of the source. The call rests on the fitted dose curve; in most records, active means well fitted activation curve with a large enough effect in the repeat runs; inconclusive means weak or mixed curves; inactive means flat fitted curve, though single readings scatter.
# Experiment: A CellTox Green Cytotoxicity Assay to monitor cytotoxicity in HEK293 cells - 0 hour (AID 1224869); further: nearly all actives have a fitted effect of over 50% in size
# Conditions: CellTox Green fluorescence; series mostly up to 76.8 µM; cytotoxicity: at the top concentration
# Source text: National Center for Advancing Translational Sciences [NCATS]
# NIH Chemical Genomics Center [NCGC]
# U.S. Environmental Protection Agency [EPA]
# National Institutes of Environmental Health Sciences [NIEHS]
# National Toxicology Program [NTP]
# Cell-based models are critical for drug discovery. Determining the natural cytotoxic effects resulting from test compounds is an essential research activity. A CellTox Green Cytotoxicity Assay to monitor cytotoxicity in real time of continues cell culture during 40 hours of the compound treatment was used to screen Tox21 10K library compounds in Hek293 cells. CellTox Green Cytotoxicity Assay is a nonlytic, homogeneous, biofluorescent method to measure cytotoxicity in cell culture after experimental manipulation. The assay system uses a proprietary asymmetric cyanine dye that is excluded from viable cells but preferentially stains the dead cell's DNA. […] Viable cells produce no appreciable increases in fluorescence. Therefore, the fluorescence signal produced by the binding interaction with dead cell DNA is proportional to cytotoxicity.
# The mixture of Hek293 cell suspension and reagents were dispensed at 600cells/6 ul/well in 1536-well tissue culture treated black solid bottom plates using a Multidrop dispenser. After the assay plates were incubated at a 37 C/5% CO2 incubator for 5 hours, 23 nL of compounds dissolved in DMSO, positive and negative controls was transferred to the assay plate by a pintool work station. The plates were incubated at 37 C for 40 hours. The fluorescence intensity were measured at 0h, 8h, 16h, 24h, 32h and 40h time points using ViewLux plate reader during compound treatment.
# On the % scale 0 is the no-effect control and ±100 the full control effect; potency means the concentration at half of the fitted maximal effect; tags describe the fitted curve by direction and shape.
SMILES,cytotoxicity,Potency
O=P(O)(O)OP(=O)(O)O,inactive: -6.16%,–
CC12CCC(C1)C(C)(C)C2O (stereo not drawn),–,"inconclusive: 54.9 µM [activator, single point]"
CC(C)(O)C(=O)c1ccccc1,inactive: 3.41%,–
O=Cc1ccccc1Cl,–,"inconclusive: 54.1 µM [activator, partial curve, poor fit]"
COc1ccccc1N1CCN(CC(O)COc2cc(OC)c(OC)c(OC)c2)CC1 (stereo not drawn),inactive: 1.42% [at 35.3 µM],–
C[C@H]1C[C@@H](O)CC(C)(C)C1,–,"inconclusive: 21.9 µM [activator, single point]"
CC(C)(C)NC[C@H](O)COc1cccc2c1CCCC2=O,–,"inconclusive: 10.7 µM [activator, single point]"
O=S(=O)(O)c1cc(O)c2ccc(Nc3ccccc3)cc2c1,inactive: 0.395%,–
C1=CCCC1,–,"inconclusive: 54.9 µM [activator, single point]"
CC1(C)COCN1,–,"inconclusive: 21.9 µM [activator, single point]"
COC(/C=C(\C)CCC=C(C)C)OC,–,"inconclusive: 0.49 µM [activator, single point]"
C[N+]1(C)CCC(OC(=O)C(O)(c2ccccc2)C2CCCC2)C1 (stereo not drawn),–,"inconclusive: 23.9 µM [activator, single point]"
CS(=O)(=O)O,inactive: -3.75%,–
CS(C)(=O)=O,–,"inconclusive: 21.9 µM [activator, single point]"
CC(C)CCOC(=O)CC(C)C,–,"inconclusive: 54.9 µM [activator, single point]"
NC(=O)Nc1ccc(Cl)cc1,inactive: -0.984%,–
CN1CCC(OC(c2ccccc2)c2ccccc2)CC1,inactive: 1.64% [at 35.3 µM],–
CN(C)CCCSc1ccccc1NC(=O)/C=C/c1ccccc1,–,active: 16.9 µM
